# Source: PubChem BioAssay AID686979 (National Center for Advancing Translational Sciences (NCATS), 2013)
# The campaign covered roughly 420,000 compounds. About 50,000 (12%) were called active. This list was built around the results that the source calls inconclusive (neither active nor inactive); the mix of calls is not that of the screen. Calls come from the whole dose curve; as a rule, active = well fitted inhibition curve with a large enough effect; inconclusive = small, poorly fitted or top-dose-only effect; inactive = flat fitted curve, though single readings scatter. Potencies of inconclusive entries are left out as doubtful fits.
# Experiment: qHTS for Inhibitors of human tyrosyl-DNA phosphodiesterase 1 (TDP1): qHTS in cells in presence of CPT; note: nearly all actives have a fitted effect of over 55% in size
# Details: chicken DT40 Tdp1-/-;hTDP1 cells + 20 nM CPT, ATP luminescence, 48 h; series mostly up to 46.2 µM
# In short: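 Cell growth measured by CellTiter-Glo luminescence after a minimum 48 h, 37 C compound exposure with 20 nM CPT in Tdp1-knockout DT40 cells stably expressing hTDP1, seeded 400/well; qHTS titration format.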
# Potency is the fitted concentration of half-maximal effect; tags give direction and shape of the fitted curve.
row,SMILES,Potency
1,Cc1ccccc1-c1nc2c3ccccc3nc(=S)n2[nH]1,active: 4.11 µM
2,CCOC(=O)c1sc(NC(=O)Nc2ccc(F)cc2)nc1C,"inconclusive [inhibitor, single point]"
3,CCc1cccc(C)c1NC(=O)COC(=O)CC1CCCC1,inactive
4,Cc1cc(-c2ccccc2)nc2cc(C(=O)N(Cc3ccccc3)Cc3ccccc3)nn12,"inconclusive [inhibitor, single point]"
5,O=C(NCc1ccccc1F)c1ccc(CN2CC(=O)N3CCCCC3C2=O)cc1 (stereo not given),inactive
6,Cc1ccc(/C=C/c2ccc(N(C)C)cc2)[n+](C)c1,active: 0.517 µM
7,Cc1cccc(-c2ccc3[nH]c4c(c3c2)CCN2C[C@@H]([C@H](C)OC(=O)Nc3ccccc3C)[C@@H](N(C)C(=O)Nc3ccccc3C)C[C@@H]42)c1,"inconclusive [inhibitor, single point]"
8,CC(C)(C)c1cc(NC(=O)C2(C)CCN2C(=O)c2ccccc2CCc2ccccc2)no1 (stereo not given),"inconclusive [inhibitor, single point]"
9,O=C(C1=C[C@@H](C2CC2)C[C@@H](OCCCCO)O1)N1CCN(Cc2ccccc2)CC1,inactive
10,COCCNC(=O)C(c1ccc(C)o1)N(C(=O)Cn1nnc2ccccc21)c1ccccc1 (stereo not given),inactive
11,C=CCN1C(=O)C(O)(CC(=O)c2ccco2)c2cc(Br)ccc21 (stereo not given),active: 2.31 µM
12,CC(C)(C)N1[C@@H](CC(=O)O)c2cc(C(F)(F)F)ccc2S1(=O)=O,inactive
13,S=C(NCc1ccc2c(c1)OCO2)NC1CCN(Cc2ccccc2)CC1,"inconclusive [inhibitor, single point]"
14,Cc1cccc(NC(=O)c2nc[nH]c2C(=O)NCCN(CCNC(=O)c2[nH]cnc2C(=O)Nc2cccc(C)c2)CCNC(=O)c2[nH]cnc2C(=O)Nc2cccc(C)c2)c1,active: 6.51 µM
15,C=CCOC(=O)C1=C[C@@H](c2ccc(C(F)(F)F)cc2)C[C@@H](OCc2ccc(CO)cc2)O1,"inconclusive [inhibitor, single point]"
16,CC1CN(S(=O)(=O)c2csc(C(=O)Nc3ccccc3)c2)CC(C)O1 (stereo not given),"inconclusive [inhibitor, partial curve]"
17,COc1cccc(C(=O)N2c3cc(C)ccc3C(C)(c3ccccc3)CC2(C)C)c1 (stereo not given),"inconclusive [inhibitor, single point]"
18,CSc1nc(-c2ccccc2)nc(C(Cl)Cl)n1,active: 1.16 µM
19,CCC/C(=N/NC(=O)c1nnn(-c2nonc2N)c1CN1CCCCC1)c1ccccc1,inactive
20,COc1ccc(CCNc2nc(-c3cccnc3)cs2)cc1OC,"inconclusive [inhibitor, single point]"
21,CCOC(=O)c1c(C)nc2sc(C(=O)Nc3ccc(C(C)=O)cc3)c(N)c2c1-c1ccc(OC)cc1,"inconclusive [inhibitor, single point]"
22,Cc1csc(NC(=O)c2ccc(C)c([N+](=O)[O-])c2)n1,"inconclusive [inhibitor, single point]"
23,CCc1ccc(CNC(=O)c2cnc3sc4cc(OC)ccc4n3c2=O)cc1,inactive

row,SMILES,Potency
1,Cn1c(-c2ccc(Br)o2)nc2cc(Br)ccc21,"inconclusive [inhibitor, single point]"
2,CCCn1c2ccccc2c2cnn(CC(=O)N3CCC(C)CC3)c(=O)c21,"inconclusive [inhibitor, single point]"
3,CC/C(=N\NC(=O)COc1ccc(Br)cc1)c1ccc(OC)c(OC)c1,"inconclusive [inhibitor, partial curve, poor fit]"
4,CCOC(=O)c1c(-c2ccccc2)oc2cc(CN(C)C)c(O)c(CN(C)C)c12,"inconclusive [inhibitor, single point]"
5,CCOC(=O)c1cc2cc(C)ccc2[nH]1,"inconclusive [inhibitor, partial curve]"
6,Cc1ccc(O)c(NC(=O)c2cccc(NC(=O)c3ccco3)c2)c1,"inconclusive [inhibitor, single point]"
7,Cc1ccc(Cl)cc1-c1cc(C(=O)Nc2ccc(F)cc2)[nH]n1,active: 23.1 µM
8,N#CCCN(Cc1cccnc1)S(=O)(=O)c1ccc2ccccc2c1,"inconclusive [inhibitor, single point]"
9,CCc1ccc(NC(=S)NCC2CCCN2CC)cc1 (stereo not given),inactive
10,O=C(COC(=O)Cc1ccsc1)Nc1ccc(Cl)cn1,inactive
11,Nc1nc2c(s1)CCc1ccccc1-2,inactive
12,CC(=O)c1ccc(C(=O)N2CCc3c([nH]c4ccccc34)C2c2ccccn2)s1 (stereo not given),"inconclusive [inhibitor, single point]"
13,COc1cc(C(=S)N2CCCCC2)ccc1OCC(=O)Nc1ccccc1Cl,"inconclusive [inhibitor, single point]"
14,CCOC(=O)c1sc2cccc(F)c2c1S(=O)(=O)N1CCN(c2cccc(Cl)c2)CC1,"inconclusive [inhibitor, partial curve]"
15,CCn1c(COc2ccc3ccccc3c2C)nnc1SCC(=O)Nc1cccc(C(=O)O)c1,inactive
16,CCOC(=O)C1=C[C@@H](CC)N(S(=O)(=O)c2ccc([N+](=O)[O-])cc2)[C@H]1c1ccccc1,active: 20.6 µM
17,C#CCOc1ccc(/C=C2/C(=O)ON=C2C)cc1Cl,"inconclusive [inhibitor, single point]"
18,CC(=O)OCCCN1c2ccccc2Nc2nnc(-c3ccccc3)cc21,"inconclusive [inhibitor, single point]"
19,CC1CCN(c2ccc3c(c2)S(=O)(=O)c2cccc(C(=O)NC4CCCCC4)c2C3=O)CC1,active: 16.4 µM
20,CCCC(=O)Nc1c(-c2ccccc2)[nH][nH]c1=O,inactive
21,Cc1c(Cc2ccccc2)[n+](=O)c2ccccc2n1[O-],inactive
22,CCc1ccccc1NC(=O)Nc1cccn(Cc2ccccc2F)c1=O,"inconclusive [inhibitor, single point]"
